Our source for the binding signal (RPM ratio (pull-down/input)) values is article PMC12820563.

This is one part of the list. The list includes weakly bound sequences.

The target of this test is T1, MBP-FoxP3dN (UniProt Q99JB6).
T1 sequence: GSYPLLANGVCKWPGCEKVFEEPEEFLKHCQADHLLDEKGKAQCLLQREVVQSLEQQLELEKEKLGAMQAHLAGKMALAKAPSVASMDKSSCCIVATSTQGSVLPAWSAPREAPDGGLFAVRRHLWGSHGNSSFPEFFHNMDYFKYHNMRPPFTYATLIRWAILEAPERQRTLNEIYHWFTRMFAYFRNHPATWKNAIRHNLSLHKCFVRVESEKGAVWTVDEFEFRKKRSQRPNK
Kind of test: PD-seq (MBP pull-down with sequencing). As to conditions: 20 mM Tris-HCl pH 7.5, 100 mM NaCl, 1.5 mM MgCl2, 0.4 uM protein, 0.1 uM dsDNA library, 30 min, room temperature, amylose pull-down; high values mean tight binding; double strand, one strand shown.
Consider “GATGATTGTTCTCCCAGCTGATGAATTCTACCATTCGAGTAAACAAATTTTCCTAATCTTTCTGTTCAAGCGCCATCTAC”, for which the binding signal (RPM ratio (pull-down/input)) stood at 0.417.
On to “GATGATTGTTCTCCCAGCTGATGAATTTCGTGTTTCGAGTAAACAAATTTTCCTAATCTTTCTGTTCAAGCGCCATCTAC”, for which the binding signal (RPM ratio (pull-down/input)) amounted to 1.41.
As to “GATGATTGTTCTCCCAGCTGATGAATTAAGTTACTCGAGTAAACAAATTTTCCTAATCTTTCTGTTCAAGCGCCATCTAC”, the binding signal (RPM ratio (pull-down/input)) worked out at 1.57.
For the sequence “GATGATTGTTCTCCCAGCTGATGAATTGGGCGCCTCGAGTAAACAAATTTTCCTAATCTTTCTGTTCAAGCGCCATCTAC”, the binding signal (RPM ratio (pull-down/input)) was determined as 1.16.
Then “GATGATTGTTCTCCCAGCTGATGAATTTCCCCGCTCGAGTAAACAAATTTTCCTAATCTTTCTGTTCAAGCGCCATCTAC”, with 0.17.
For the sequence “GATGATTGTTCTCCCAGCTGATGAATTGCTACGGTCGAGTAAACAAATTTTCCTAATCTTTCTGTTCAAGCGCCATCTAC”, the binding signal (RPM ratio (pull-down/input)) was found to be 0.498.
Turning to “GATGATTGTTCTCCCAGCTGATGAATTGCCGCCGTCGAGTAAACAAATTTTCCTAATCTTTCTGTTCAAGCGCCATCTAC”, the binding signal (RPM ratio (pull-down/input)) turned out to be 0.854.
Take “GATGATTGTTCTCCCAGCTGATGAATTGTTATCGTCGAGTAAACAAATTTTCCTAATCTTTCTGTTCAAGCGCCATCTAC”: the binding signal (RPM ratio (pull-down/input)) was determined as 3.32.
For “GATGATTGTTCTCCCAGCTGATGAATTCTGTTGATCGAGTAAACAAATTTTCCTAATCTTTCTGTTCAAGCGCCATCTAC”, the binding signal (RPM ratio (pull-down/input)) came to 6.26.
For the sequence “GATGATTGTTCTCCCAGCTGATGAATTGTCGAAGTCGAGTAAACAAATTTTCCTAATCTTTCTGTTCAAGCGCCATCTAC”, the binding signal (RPM ratio (pull-down/input)) came to 0.267.
Regarding “GATGATTGTTCTCCCAGCTGATGAATTGCTTGCATCGAGTAAACAAATTTTCCTAATCTTTCTGTTCAAGCGCCATCTAC”, the binding signal (RPM ratio (pull-down/input)) was 1.89.
Regarding “GATGATTGTTCTCCCAGCTGATGAATTCCGCCTTTCGAGTAAACAAATTTTCCTAATCTTTCTGTTCAAGCGCCATCTAC”, the binding signal (RPM ratio (pull-down/input)) was determined as 5.55.
With “GATGATTGTTCTCCCAGCTGATGAATTCTATACTTCGAGTAAACAAATTTTCCTAATCTTTCTGTTCAAGCGCCATCTAC”, the binding signal (RPM ratio (pull-down/input)) amounted to 0.52.
As for “GATGATTGTTCTCCCAGCTGATGAATTGAGTAAATCGAGTAAACAAATTTTCCTAATCTTTCTGTTCAAGCGCCATCTAC”, the binding signal (RPM ratio (pull-down/input)) is 0.321.
On to “GATGATTGTTCTCCCAGCTGATGAATTCAGGGGGTCGAGTAAACAAATTTTCCTAATCTTTCTGTTCAAGCGCCATCTAC”, for which the binding signal (RPM ratio (pull-down/input)) was found to be 0.504.
Then “GATGATTGTTCTCCCAGCTGATGAATTCTTTCTTTCGAGTAAACAAATTTTCCTAATCTTTCTGTTCAAGCGCCATCTAC”, with 0.21; and “GATGATTGTTCTCCCAGCTGATGAATTACTCGCGTCGAGTAAACAAATTTTCCTAATCTTTCTGTTCAAGCGCCATCTAC”, with 0.538; and “GATGATTGTTCTCCCAGCTGATGAATTACACAGGTCGAGTAAACAAATTTTCCTAATCTTTCTGTTCAAGCGCCATCTAC”, with 0.412.
Regarding “GATGATTGTTCTCCCAGCTGATGAATTTACAATCTCGAGTAAACAAATTTTCCTAATCTTTCTGTTCAAGCGCCATCTAC”, the binding signal (RPM ratio (pull-down/input)) is 0.506.
“GATGATTGTTCTCCCAGCTGATGAATTCGACCTATCGAGTAAACAAATTTTCCTAATCTTTCTGTTCAAGCGCCATCTAC”: the binding signal (RPM ratio (pull-down/input)) was 0.381.
Regarding “GATGATTGTTCTCCCAGCTGATGAATTATGTAAGTCGAGTAAACAAATTTTCCTAATCTTTCTGTTCAAGCGCCATCTAC”, the binding signal (RPM ratio (pull-down/input)) was determined as 1.19.
Then “GATGATTGTTCTCCCAGCTGATGAATTTACGTGTTCGAGTAAACAAATTTTCCTAATCTTTCTGTTCAAGCGCCATCTAC”, with 0.861; and “GATGATTGTTCTCCCAGCTGATGAATTTCAGAAATCGAGTAAACAAATTTTCCTAATCTTTCTGTTCAAGCGCCATCTAC”, with 0.229.
In the case of “GATGATTGTTCTCCCAGCTGATGAATTGCATTTTTCGAGTAAACAAATTTTCCTAATCTTTCTGTTCAAGCGCCATCTAC”, the binding signal (RPM ratio (pull-down/input)) is 3.02.
Turning to “GATGATTGTTCTCCCAGCTGATGAATTTTGTGATTCGAGTAAACAAATTTTCCTAATCTTTCTGTTCAAGCGCCATCTAC”, the binding signal (RPM ratio (pull-down/input)) turned out to be 5.26.
On to “GATGATTGTTCTCCCAGCTGATGAATTGCCGCTTTCGAGTAAACAAATTTTCCTAATCTTTCTGTTCAAGCGCCATCTAC”, for which the binding signal (RPM ratio (pull-down/input)) is 1.66.
On to “GATGATTGTTCTCCCAGCTGATGAATTAGGACTATCGAGTAAACAAATTTTCCTAATCTTTCTGTTCAAGCGCCATCTAC”, for which the binding signal (RPM ratio (pull-down/input)) was found to be 0.577.
Then “GATGATTGTTCTCCCAGCTGATGAATTCTGCGTCTCGAGTAAACAAATTTTCCTAATCTTTCTGTTCAAGCGCCATCTAC”, with 4.55.
Under “GATGATTGTTCTCCCAGCTGATGAATTAGTGACCTCGAGTAAACAAATTTTCCTAATCTTTCTGTTCAAGCGCCATCTAC” stands 0.612.
Under “GATGATTGTTCTCCCAGCTGATGAATTCGTCCCCTCGAGTAAACAAATTTTCCTAATCTTTCTGTTCAAGCGCCATCTAC” stands 0.616; under “GATGATTGTTCTCCCAGCTGATGAATTGTACGCCTCGAGTAAACAAATTTTCCTAATCTTTCTGTTCAAGCGCCATCTAC”, 0.75; under “GATGATTGTTCTCCCAGCTGATGAATTCAGCCTGTCGAGTAAACAAATTTTCCTAATCTTTCTGTTCAAGCGCCATCTAC”, 3.98.
With “GATGATTGTTCTCCCAGCTGATGAATTACAACCATCGAGTAAACAAATTTTCCTAATCTTTCTGTTCAAGCGCCATCTAC”, the binding signal (RPM ratio (pull-down/input)) turned out to be 0.693.
Under “GATGATTGTTCTCCCAGCTGATGAATTTATAAACTCGAGTAAACAAATTTTCCTAATCTTTCTGTTCAAGCGCCATCTAC” stands 0.622; under “GATGATTGTTCTCCCAGCTGATGAATTTACGCATTCGAGTAAACAAATTTTCCTAATCTTTCTGTTCAAGCGCCATCTAC”, 6.38; under “GATGATTGTTCTCCCAGCTGATGAATTGGTGACTTCGAGTAAACAAATTTTCCTAATCTTTCTGTTCAAGCGCCATCTAC”, 0.689.
Turning to “GATGATTGTTCTCCCAGCTGATGAATTAATAGATTCGAGTAAACAAATTTTCCTAATCTTTCTGTTCAAGCGCCATCTAC”, the binding signal (RPM ratio (pull-down/input)) came to 0.317.
On to “GATGATTGTTCTCCCAGCTGATGAATTGGCTGGGTCGAGTAAACAAATTTTCCTAATCTTTCTGTTCAAGCGCCATCTAC”, for which the binding signal (RPM ratio (pull-down/input)) came out at 0.34.
With “GATGATTGTTCTCCCAGCTGATGAATTCGTTACATCGAGTAAACAAATTTTCCTAATCTTTCTGTTCAAGCGCCATCTAC”, the binding signal (RPM ratio (pull-down/input)) is 0.657.
Turning to “GATGATTGTTCTCCCAGCTGATGAATTCGGATATTCGAGTAAACAAATTTTCCTAATCTTTCTGTTCAAGCGCCATCTAC”, the binding signal (RPM ratio (pull-down/input)) was 0.752.
“GATGATTGTTCTCCCAGCTGATGAATTTCCTAGGTCGAGTAAACAAATTTTCCTAATCTTTCTGTTCAAGCGCCATCTAC”: the binding signal (RPM ratio (pull-down/input)) was determined as 0.191.
Under “GATGATTGTTCTCCCAGCTGATGAATTCGGGAAGTCGAGTAAACAAATTTTCCTAATCTTTCTGTTCAAGCGCCATCTAC” stands 0.172.
“GATGATTGTTCTCCCAGCTGATGAATTTAATAAGTCGAGTAAACAAATTTTCCTAATCTTTCTGTTCAAGCGCCATCTAC”: the binding signal (RPM ratio (pull-down/input)) came out at 0.357.
Under “GATGATTGTTCTCCCAGCTGATGAATTTCCCAATTCGAGTAAACAAATTTTCCTAATCTTTCTGTTCAAGCGCCATCTAC” stands 0.231; under “GATGATTGTTCTCCCAGCTGATGAATTGAAAGCCTCGAGTAAACAAATTTTCCTAATCTTTCTGTTCAAGCGCCATCTAC”, 0.364; under “GATGATTGTTCTCCCAGCTGATGAATTCAGGTGTTCGAGTAAACAAATTTTCCTAATCTTTCTGTTCAAGCGCCATCTAC”, 0.709.
Consider “GATGATTGTTCTCCCAGCTGATGAATTAGCTGACTCGAGTAAACAAATTTTCCTAATCTTTCTGTTCAAGCGCCATCTAC”, for which the binding signal (RPM ratio (pull-down/input)) was 1.43.
With “GATGATTGTTCTCCCAGCTGATGAATTTTCGACATCGAGTAAACAAATTTTCCTAATCTTTCTGTTCAAGCGCCATCTAC”, the binding signal (RPM ratio (pull-down/input)) is 0.532.
Take “GATGATTGTTCTCCCAGCTGATGAATTTCAGTAGTCGAGTAAACAAATTTTCCTAATCTTTCTGTTCAAGCGCCATCTAC”: the binding signal (RPM ratio (pull-down/input)) came out at 0.389.
For “GATGATTGTTCTCCCAGCTGATGAATTAGGGTATTCGAGTAAACAAATTTTCCTAATCTTTCTGTTCAAGCGCCATCTAC”, the binding signal (RPM ratio (pull-down/input)) amounted to 0.993.
For the sequence “GATGATTGTTCTCCCAGCTGATGAATTCTTCACTTCGAGTAAACAAATTTTCCTAATCTTTCTGTTCAAGCGCCATCTAC”, the binding signal (RPM ratio (pull-down/input)) was determined as 0.259.
“GATGATTGTTCTCCCAGCTGATGAATTGGTAGTGTCGAGTAAACAAATTTTCCTAATCTTTCTGTTCAAGCGCCATCTAC”: the binding signal (RPM ratio (pull-down/input)) is 1.68.
For “GATGATTGTTCTCCCAGCTGATGAATTTAGGAGATCGAGTAAACAAATTTTCCTAATCTTTCTGTTCAAGCGCCATCTAC”, the binding signal (RPM ratio (pull-down/input)) is 0.289.
In the case of “GATGATTGTTCTCCCAGCTGATGAATTGGAAGCGTCGAGTAAACAAATTTTCCTAATCTTTCTGTTCAAGCGCCATCTAC”, the binding signal (RPM ratio (pull-down/input)) came to 0.408.
Turning to “GATGATTGTTCTCCCAGCTGATGAATTATTTTGTTCGAGTAAACAAATTTTCCTAATCTTTCTGTTCAAGCGCCATCTAC”, the binding signal (RPM ratio (pull-down/input)) worked out at 1.15.
As to “GATGATTGTTCTCCCAGCTGATGAATTCCTCTACTCGAGTAAACAAATTTTCCTAATCTTTCTGTTCAAGCGCCATCTAC”, the binding signal (RPM ratio (pull-down/input)) was found to be 0.304.
Then “GATGATTGTTCTCCCAGCTGATGAATTTACTGACTCGAGTAAACAAATTTTCCTAATCTTTCTGTTCAAGCGCCATCTAC”, with 0.874; and “GATGATTGTTCTCCCAGCTGATGAATTGGTTGTTTCGAGTAAACAAATTTTCCTAATCTTTCTGTTCAAGCGCCATCTAC”, with 5.26; and “GATGATTGTTCTCCCAGCTGATGAATTGCCAAGGTCGAGTAAACAAATTTTCCTAATCTTTCTGTTCAAGCGCCATCTAC”, with 0.337.
Then “GATGATTGTTCTCCCAGCTGATGAATTGTTATCTTCGAGTAAACAAATTTTCCTAATCTTTCTGTTCAAGCGCCATCTAC”, with 2.82.
In the case of “GATGATTGTTCTCCCAGCTGATGAATTCTCTTGTTCGAGTAAACAAATTTTCCTAATCTTTCTGTTCAAGCGCCATCTAC”, the binding signal (RPM ratio (pull-down/input)) came to 0.459.
“GATGATTGTTCTCCCAGCTGATGAATTCCTTTTCTCGAGTAAACAAATTTTCCTAATCTTTCTGTTCAAGCGCCATCTAC”: the binding signal (RPM ratio (pull-down/input)) was 0.368.
Regarding “GATGATTGTTCTCCCAGCTGATGAATTACGTCACTCGAGTAAACAAATTTTCCTAATCTTTCTGTTCAAGCGCCATCTAC”, the binding signal (RPM ratio (pull-down/input)) came out at 1.34.
